Results on 19 molecules are retold here after the supplement of paper PMC12632987.

In all, about 4,500 sequences were measured (“median log2 fold change of GCK-ALFA target abundance (FLAG IP / Myc IP barcode read proportion)”: median about 0.078, lowest 2% from about -0.6 on). The list shows a part of the results.

B1: GBRAP_9_7121 (protein)
chain: NPELIKKMAEVAKEMVEDIAEAVPEVTEEQKEEFLKRIEKLEKELLANKNATPEEAAKAFKKLVKEIRDEVKAIVDPELAKIVDAIALTAEEEIEEIVEE
B2: GBRAP_48_5831 (protein)
chain: MKLDLEKLEKLVEETVEEMKEIYEEAKKEGLSDEDILKMIKAELGDLALELEEAGYEKAADWLLEKENRDALAEKLLELFKEGKYEEAKKYLLEELLKAE
B3: GBRAP_160_4677 (protein)
chain: MEEKEKLLKEIREILEEAVEMMEGESLEERVAIAEVAGGDIILLLEESPIVTDEVVDYADEIMDEFVERIRENPELTREELRELAEEALKKIEEEIEKNS
B4: GBRAP_160_4383 (protein)
chain: EEELEKLIEEIKELRKEFEEEAKNLNSEETRILAIGVLSEIAALVWENEAVSEETKDKIAEIIDEAIEKIKESKNANPEEIVEITKEAIDEIIKLIEKEK
B5: GBRAP_78_6733 (protein)
chain: EVEEELEKAIELLEKALKLALGRVSNEVIAELVEALSEVEEALELLEEGGEKEEIIEEIEEAIEHLKEALKLLPESEKEIRELVKKAIEELKRALEEVKK
B6: GBRAP_83_6888 (protein)
chain: AEEIVVGATADHVEAAVAAAIDLAREEGYRVVLDLAVTPEAVPRLLAALARAAAAGVRLELEVTVVAPTREEAEATAAEIRAAAEALGAASSLRVETEVV
B7: GBRAP_128_3573 (protein)
chain: SMEEKLKEAEELIETIINSDLETAREAAEKLVALIGESDEETREKIVELVLKALPKLTKEKLLVLADVLREKRPELDPLAAEYAADIEVAALNEAEELEE
B8: GBRAP_166_4897 (protein)
chain: STAEAIARIEALAEETIARIAELTPEELLAAFVEMAEIVEEAGATPELIAAAAKAFARVARAAVAAGRDWDEVETLILGAVGYNEKLLDAVEAELAAARA
B9: GBRAP_137_3654 (protein)
chain: MKININITIDGDFAEIEIKADTKELAEKSADILYEVAKETGVAIAISLDLENKTVYADLLGEKEKIREAIEKFIEKLSKIADVNLTLTEDGKTTKEEIKK
B10: GBRAP_160_3974 (protein)
chain: KEEIEELEKEIEEIFDEAIEMIKGESYENRLTIIRVMVGEILLLADENELISDELEEEIDEIGDELIAYIEANPDLTDEEITALIEEARDKILEAIKKEH
B11: GBRAP_184_5090 (protein)
chain: KTYEALVEAETKEEALKKLEEVLEKAAKEKANLTVLVDLKGLDVEEAIELLEKAGKAKKEGKVPDVTVGFANAFTEEEVDKILKKADEVGVKVVLPLKEE
B12: GBRAP_26_5465 (protein)
chain: MEEAFKKAIEKIDEITAKLPNPEAAAALRALADTEIEELEEDIENGEDIDKAVEKHEKEFLEEAREILEEAGLPEELIEKTLEEFRKVFDELKEDLKKEQ
B13: GBRAP_83_6945 (protein)
chain: KEHWVVAAPGDRVEEAVEIALDLKKEEGKEVSLEVIFSDEQAEKVVEAIKEGIKKGLETEILLVHTDSNLEKAEEVAEKIKKAAKEAGKKVEVKVAVLEP
B14: GBRAP_128_3497 (protein)
chain: SVEEAVARTRALMAAIGEADAAEAAALTAEWVALLAGLDAEGREAAVAVAEELLPELDAERLDVVADTLRAARPSLDPETANLVADLEVEALNAAEEKEE
B15: GBRAP_55_6434 (protein)
chain: SEDEELDKEASEDLVETAAALVEDPAAMERVINRLAKEQAGHPIYVTKEALDLLPTEEQRRAFLTALVRAAKANPKIKGIKLVDVSEEDKALLEEAKKEV
B16: GBRAP_125_3050 (protein)
chain: ALEAAVAALAALARLLGLSDEEVAELAALARRHGVKGALIALLLAEGEEEAAELAARLSEEAVVAVLLEFAAWLAAHPDISREEALARLRELLRAALARE
B17: GBRAP_11_2719 (protein)
chain: KKEELEKLAKKAEELAKKVEKLIKEGPKKEEIKKLKEEVEKLREEAKKIGADEDILKTLEIAAEDLKEAIEKPENVKEHLKNAKAALRVAAGQLLLEAEE
B18: GBRAP_35_5537 (protein)
chain: NEEEEEVEMIVNTMEDIVEALPDVSPEEQLTLAKHLIKLAKDLVEEKPKNKELVKRAIENLERAIEIIKKSDLPEEEQEKLIKELKEVKEKLEKILKENE
B19: GBRAP_128_3317 (protein)
chain: MDEERLEEFEELAEEAKTADLERLREITRRMVELIGELDEEEREEAEEIFREALEKLDAEKLDVVADTLEEKRPELDEEAANVVAGLEVDALNLAEEKEE

For the assay, the target named is GABARAP, O95166. The experiment in a line: median log2 fold change of GCK-ALFA target abundance (FLAG IP / Myc IP barcode read proportion) (log2 ratio); each designed protein is fused to an ALFA-tag nanobody in HEK293 cells to bring the named protein to FLAG-tagged glucokinase (GCK); Myc marks an untargeted standard; higher = target protein stabilised (more abundant). Particulars: target protein: 3xFLAG-MCP-GCK-ALFA reporter; HEK293 landing pad (RPLP). In outline: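 The readout is target abundance, the per-binder median log2 ratio of FLAG to Myc barcode read proportions. It came from HEK293 landing-pad cells carrying a recombined ALFA-nanobody-fused binder library, induced with 2 μg mL^−1 doxycycline and transfected with a plasmid for a FLAG-tagged target and a Myc-tagged standard. After 48 h, lysates were immunoprecipitated with anti-FLAG and anti-Myc, and circular RNA barcodes were reverse transcribed, amplified and sequenced. Each barcode needed a proportion of at least 10^−7 in both replicates and each binder at least 3 barcodes per replicate, a pseudocount of 10^−6 was added, and the replicates were pooled.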
GABARAP, O95166, sequence (O95166 whole entry, the tested form may be a part): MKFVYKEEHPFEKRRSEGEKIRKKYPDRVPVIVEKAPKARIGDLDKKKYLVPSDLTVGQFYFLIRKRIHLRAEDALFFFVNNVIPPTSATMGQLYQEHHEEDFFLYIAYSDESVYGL
For the molecule B1, the “median log2 fold change” value stood at 0.0132.

As for B2, the “median log2 fold change” value turned out to be 0.142.

In the case of B3, the “median log2 fold change” value was -0.212.

In the case of B4, the “median log2 fold change” value was -0.167.

For the molecule B5, the “median log2 fold change” value was -0.332.

Consider B6, for which the “median log2 fold change” value is -0.0788.

Consider B7, for which the “median log2 fold change” value came out at 0.271.

On to B8, for which the “median log2 fold change” value was found to be 0.179.

As for B9, the “median log2 fold change” value was -0.0874.

B10: the “median log2 fold change” value was -0.442.

Regarding B11, the “median log2 fold change” value came to 0.01.

Take B12: the “median log2 fold change” value stood at 0.353.

For B13, the “median log2 fold change” value is -0.0917.

B14: the “median log2 fold change” value amounted to 0.112.

With B15, the “median log2 fold change” value worked out at 0.333.

For B16, the “median log2 fold change” value is -0.054.

In the case of B17, the “median log2 fold change” value stood at 0.119.

B18: the “median log2 fold change” value was found to be 0.214.

As to B19, the “median log2 fold change” value was -0.111.
